According to PubChem BioAssay AID485281 (National Center for Advancing Translational Sciences (NCATS), 2010):
Among all 350,000 compounds or so, about 260 (0.074%) were called active. Inconclusive results, whose numbers are uncertain, are shown with a selection of clear calls. Calls come from the whole dose curve; as a rule, active = well fitted inhibition curve with a large enough effect; inconclusive = small, poorly fitted or top-dose-only effect; inactive = no such curve, though single readings can be large or run the other way. Potencies of inconclusive entries are doubtful fits and often do not repeat.

molecular target: Ferritin light chain (Equus caballus) (UniProt P02791); test: qHTS Assay for Identification of Novel General Anesthetics; conditions: apoferritin/1-aminoanthracene competitive binding, fluorescence; activity change, negative = displacement: at 77.5 µM (top of the series); note: nearly all actives have a fitted effect of over 20% in size
Sequence of UniProt P02791 (P02791 whole entry, looked up): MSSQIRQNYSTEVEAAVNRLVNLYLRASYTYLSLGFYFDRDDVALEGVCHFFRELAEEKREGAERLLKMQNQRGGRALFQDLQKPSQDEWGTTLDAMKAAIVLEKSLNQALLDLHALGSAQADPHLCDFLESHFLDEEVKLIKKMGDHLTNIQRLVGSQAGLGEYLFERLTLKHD
Summary of the method: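 Horse-spleen apoferritin (10 uM) was mixed with 50% saturated 1-aminoanthracene in PBS, exposed to compounds for 10 min at room temperature, and read for fluorescence (ex 380 nm, em 535 nm). Competitive displacement was fitted with a four-parameter Hill equation.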
% is set by controls: 0 for no effect and ±100 for the full control effect; potency is the fitted concentration of half-maximal effect; tags give direction and shape of the fitted curve.

SMILES	Potency	activity change, negative = displacement
CC1CCCC(NC(=O)CSc2nnc(N)s2)C1C (centres undefined)	inconclusive: 17.8 µM [inhibitor, partial curve]	–
Cc1c(CC(=O)NCCc2ccccc2F)c(=O)oc2c(C)c3occ(C(C)(C)C)c3cc12	inconclusive: 3.98 µM [inhibitor, full curve]	–
O=C(c1cc(Br)c(Br)s1)N1CCN(C/C=C/c2ccccc2)CC1	inconclusive: 44.7 µM [inhibitor, partial curve]	–
CCN(CC)CCN1C(=O)/C(=C\c2ccc(Cl)c([N+](=O)[O-])c2)SC1=Nc1ccc(OC)cc1	inconclusive: 35.5 µM [inhibitor, single point]	–
COc1ccccc1CNS(=O)(=O)c1cc(C(=O)Nc2cccc(C(F)(F)F)c2)ccc1F	inconclusive: 10 µM [inhibitor, partial curve]	–
C=CCN1C(=O)N/C(=C/c2ccc(N3CCOCC3)o2)C1=O	–	inactive: -7.24%
N#Cc1cc([N+](=O)[O-])cnc1N(CCO)CCO	–	inactive: -8.99%
CCc1nnc(NC(=O)CSc2nnc(-c3cc4ccccc4cc3O)n2CCOC)s1	inconclusive: 28.2 µM [inhibitor, partial curve]	–
CCN(CC)C(=O)c1sc(NC(=O)c2ccc(C)c([N+](=O)[O-])c2)c(C#N)c1C	–	inactive: -7.93%
Cc1cccc(SCC(=O)Nc2ccc3c(c2)OCCO3)c1	inconclusive: 15.8 µM [inhibitor, partial curve]	–
COc1ccc(OC)c(C(=O)CSc2nnc(Cc3cccs3)n2CCc2ccccc2)c1	inconclusive: 10 µM [inhibitor, full curve]	–
C/C(Cc1ccccc1)=N\NC(=O)CNC(=O)c1cccc(F)c1	inconclusive: 50.1 µM [inhibitor, single point]	–
C/C(CC(=O)Nc1ccccc1F)=N\NC(=O)Cc1ccc(Cl)cc1	inconclusive: 22.4 µM [inhibitor, partial curve]	–
CCOC(=O)c1c(C)[nH]c(C(=O)COC(=O)C2CC(=O)N(Cc3ccccc3)C2)c1C (centres undefined)	inconclusive: 35.5 µM [inhibitor, partial curve]	–
CC1=CC(=O)C2=C(C)CC[C@H]3[C@H](C)C(=O)O[C@@H]3C12 (some centres undefined)	–	inactive: -9.22%
Cc1nnc(SCC(=O)NNC(=O)c2ccc(Br)cc2)n1C	inconclusive: 39.8 µM [inhibitor, single point]	–
NC(N)=NCCC[C@@H](N)C(=O)NCC(=O)N[C@@H](CC(=O)O)C(=O)N[C@@H](Cc1c[nH]c2ccccc12)C(=O)O	–	inactive: -0.644%
O=C(COC(=O)c1ccc(-c2ccc([N+](=O)[O-])cc2)o1)NC(=O)NC12CC3CC(CC(C3)C1)C2	inconclusive: 50.1 µM [inhibitor, partial curve]	–
COc1ccc(CCNC(=O)COC(=O)C23CC4CC(CC(C4)C2)C3)cc1	inconclusive: 25.1 µM [inhibitor, partial curve]	–
CN(C)/C=N/C1=C(C#N)C(c2cccs2)c2ccc3ccccc3c2O1 (centres undefined)	inconclusive: 15.8 µM [inhibitor, partial curve]	–

SMILES	Potency	activity change, negative = displacement
Cc1ccc(N=Cc2nc(-c3ccco3)oc2O)cc1	inconclusive: 39.8 µM [inhibitor, single point]	–
Clc1ccccc1CSc1nnc(-c2ccco2)c(-c2ccco2)n1	inconclusive: 35.5 µM [inhibitor, partial curve]	–
O=[N+]([O-])c1cc2oc3c(c2c(C=NCc2ccncc2)c1O)CCCC3	inconclusive: 22.4 µM [inhibitor, partial curve]	–
COc1ccc(Cn2ccnc2SCC(=O)NC2CCCC2)cc1	active: 35.5 µM	–
CCOC(=O)Cn1nnnc1C(CC)N(Cc1cccs1)Cc1cc2cc(C)ccc2[nH]c1=O (centres undefined)	–	inactive: -8%
CCOC(=O)c1c(C)oc2c1c(C=NCc1ccccn1)c(O)c1ccccc12	inconclusive: 22.4 µM [inhibitor, partial curve]	–
CC(C(=O)N(C1CC1)C1(C(=O)Nc2ccccc2)CCCC1)N1C(=O)c2ccccc2C1=O (centres undefined)	inconclusive: 35.5 µM [inhibitor, single point]	–
COc1ccc(NC(=O)Cc2ccc(Cl)c(Cl)c2)cn1	–	inactive: -10.6%
COC(=O)C1C(O)CC[C@H]2CN3CCc4c([nH]c5ccccc45)C3C[C@H]12 (some centres undefined)	–	inactive: 1.29%
Cn1ccs/c1=N\C(=O)Nc1ccccc1	–	inactive: 1.3%
CCOC(=O)N1CC=C2C(C#N)=C(N)C(C#N)(C#N)[C@H](c3ccc(OCC)c(OCC)c3)[C@H]2C1	inconclusive: 22.4 µM [inhibitor, partial curve]	–
CSCC[C@H](NC(=O)[C@@H]1CCCN1C(=O)CNC(=O)[C@H](CCCCN)NC(=O)[C@H](Cc1cnc[nH]1)NC(=O)[C@H](CO)NC(=O)[C@H](CC(C)C)NC(=O)[C@H](CCCNC(=N)N)NC(=O)[C@@H]1CCCN1C(=O)[C@H](CCCNC(=N)N)NC(=O)[C@H](CCC(N)=O)NC(=O)[C@H](CCCNC(=N)N)NC(=O)[C@H](CCCNC(=N)N)NC(=O)[C@H](Cc1ccccc1)NC(=O)[C@@H](N)CCCCN)C(=O)N1CCC[C@H]1C(=O)N[C@@H](Cc1ccccc1)C(=O)O	–	inactive: 4.31%
CCOC(=O)Cc1nc2cc(Cl)ccc2o1	inconclusive: 25.1 µM [inhibitor, single point]	–
Cc1ccc(Oc2ccc(NC(=O)CCC(=O)OCC(=O)c3cccs3)cc2)cc1C	inconclusive: 22.4 µM [inhibitor, partial curve]	–
CCc1nnc(NC(=O)c2cccc(S(=O)(=O)N3CCCCC3)c2)s1	inconclusive: 35.5 µM [inhibitor, single point]	–
CCc1ccc(CNC(=O)C2CCCN(c3nnc(C)c4c(C)n(-c5ccc(OC)cc5)nc34)C2)cc1 (centres undefined)	inconclusive: 7.08 µM [inhibitor, full curve]	–
Clc1ccc(/C=C/c2ncc3ccccn23)cc1	inconclusive: 39.8 µM [inhibitor, partial curve]	–
COc1ccc(Oc2c(C)oc3c(CN(C)C)c(O)ccc3c2=O)cc1	–	inactive: 45.5%
COc1ccc(C2=Nc3ccccc3OC2)cc1	inconclusive: 39.8 µM [inhibitor, partial curve]	–
